Drawing on paper PMC5013526, this text covers binding for six substances.

Amino acid sequences for entries named in this document (tags omitted).
UniProt Q9QR71: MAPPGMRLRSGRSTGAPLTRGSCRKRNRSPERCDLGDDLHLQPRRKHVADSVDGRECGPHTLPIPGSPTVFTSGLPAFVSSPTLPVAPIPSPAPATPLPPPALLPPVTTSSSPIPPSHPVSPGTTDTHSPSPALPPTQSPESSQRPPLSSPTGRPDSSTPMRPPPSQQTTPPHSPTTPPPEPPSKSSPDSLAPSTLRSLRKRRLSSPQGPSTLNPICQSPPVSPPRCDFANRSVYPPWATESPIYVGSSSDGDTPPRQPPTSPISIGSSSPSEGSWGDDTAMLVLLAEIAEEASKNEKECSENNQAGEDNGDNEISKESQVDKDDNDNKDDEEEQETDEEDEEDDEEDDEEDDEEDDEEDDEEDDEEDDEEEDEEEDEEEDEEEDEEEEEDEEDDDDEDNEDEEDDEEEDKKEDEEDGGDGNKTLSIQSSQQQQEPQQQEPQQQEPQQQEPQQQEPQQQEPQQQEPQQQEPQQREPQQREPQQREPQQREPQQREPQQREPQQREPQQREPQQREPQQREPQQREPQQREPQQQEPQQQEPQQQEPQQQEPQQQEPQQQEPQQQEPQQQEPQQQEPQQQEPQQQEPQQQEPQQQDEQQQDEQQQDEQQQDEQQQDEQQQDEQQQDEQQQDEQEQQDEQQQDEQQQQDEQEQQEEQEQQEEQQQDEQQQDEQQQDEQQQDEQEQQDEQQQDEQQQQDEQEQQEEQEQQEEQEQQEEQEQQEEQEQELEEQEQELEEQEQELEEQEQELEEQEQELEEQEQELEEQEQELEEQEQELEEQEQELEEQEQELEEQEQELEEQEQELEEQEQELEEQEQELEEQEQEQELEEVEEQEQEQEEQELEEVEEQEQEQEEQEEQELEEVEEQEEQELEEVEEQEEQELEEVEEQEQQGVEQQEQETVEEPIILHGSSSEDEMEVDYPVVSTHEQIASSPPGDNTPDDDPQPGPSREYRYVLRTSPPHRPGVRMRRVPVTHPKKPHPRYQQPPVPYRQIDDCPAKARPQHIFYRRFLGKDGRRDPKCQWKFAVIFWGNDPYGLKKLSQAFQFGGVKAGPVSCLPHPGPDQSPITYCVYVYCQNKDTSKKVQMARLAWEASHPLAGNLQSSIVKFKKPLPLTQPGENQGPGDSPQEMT

These are yes or no findings as the source states them, for the method shown. Binding seen in cells or lysates may run through a third protein. Some entries that bind do so weakly or less than the wild type.

For the first experiment, the target named is T1, Nucleosome assembly protein 1-like 1 (NAP1L1), endogenous (human (endogenous in BCBL-1 and BC-3)) (UniProt P55209).
T1 sequence: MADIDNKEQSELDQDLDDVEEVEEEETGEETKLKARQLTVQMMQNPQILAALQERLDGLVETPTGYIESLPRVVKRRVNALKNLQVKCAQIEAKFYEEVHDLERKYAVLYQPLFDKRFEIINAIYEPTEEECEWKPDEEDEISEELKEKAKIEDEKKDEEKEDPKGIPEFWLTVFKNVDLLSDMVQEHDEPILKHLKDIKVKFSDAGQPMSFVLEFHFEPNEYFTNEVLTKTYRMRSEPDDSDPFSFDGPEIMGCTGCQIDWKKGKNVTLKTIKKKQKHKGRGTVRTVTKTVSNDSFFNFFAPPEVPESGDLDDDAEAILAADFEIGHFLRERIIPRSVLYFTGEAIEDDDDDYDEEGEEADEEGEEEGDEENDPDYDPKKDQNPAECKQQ
Description: co-IP; endogenous proteins from BCBL-1 and BC-3 RIPA lysates (150 mM NaCl, 1% NP-40, sonicated); IP with anti-LANA and blot for NAP1L1, or IP with anti-NAP1L1 and blot for LANA; BJAB cells or control IgG as controls.
As to “Latency-associated nuclear antigen (LANA), endogenous in KSHV-positive cells (from UniProt Q9QR71 1-1129)”, the binding entry is “binds”.

The target of another experiment is Myc-tagged full-length LANA (pA3M LANA) (KSHV (human herpesvirus 8)) (UniProt Q9QR71). Description: co-IP; HEK 293T cells co-transfected with Flag- and Myc-tagged constructs; RIPA lysate (150 mM NaCl, 1% NP-40); IP with anti-Flag or anti-Myc, blot for the other tag.
Regarding “Flag-tagged NAP1L1 aa 1 to 291 (from UniProt P55209 1-291) (domain or fragment)”, the binding entry was “binds”.
Same read-out and setting: in the case of “Flag-tagged NAP1L1 aa 92 to 191 (from UniProt P55209 92-191) (domain or fragment)” it was “binds”.
On the same count and under the same terms, in the case of “Flag-tagged NAP1L1 aa 1 to 91 (from UniProt P55209 1-91) (domain or fragment)” it was “no binding”; in that of “Flag-tagged NAP1L1 aa 192 to 391 (from UniProt P55209 192-391) (domain or fragment)”, “no binding”.
On the same count and under the same terms, in the case of “Flag-tagged NAP1L1 aa 1 to 191 (from UniProt P55209 1-191) (domain or fragment)” it was “binds”.
